# Test results reported in ChEMBL document CHEMBL4888484, “Replenishing the malaria drug discovery pipeline: Screening and hit evaluation of the MMV Hit Generation Library 1 (HGL1) against asexual blood stage Plasmodium falciparum ,using a nano luciferase reporter read-out” (2022).
# Out of some 150,000 compounds screened, about 540 (0.36%) showed an effect of 50% or more. The list shows a part of the results.
# System: Plasmodium falciparum
# Assay: Primary screen in NF54 nanoGlo assay, in single point, at 2uM, 72h; a lower Z score goes with more inhibition
# Type: functional, Erythrocyte
# Conditions: timepoint 72 hour
SMILES,% Inhibition,Z score
O=C(CCNc1ncc(Cl)cn1)N1CCOCC1,-5%,0.64
Cn1cc2c(n1)c(=O)n(Cc1ccc(F)cc1)c(=O)n2CC(=O)Nc1cccc(Cl)c1,-12%,1.49
CCc1onc(C)c1CS(=O)(=O)c1ccc(C)s1,-12%,2.05
CNC(=O)c1ccc(-c2nc(CN3CCN(S(=O)(=O)c4ccc(OC)cc4)CC3)c(C)o2)cc1,-18%,2.66
Cc1ccc2c(C(=O)N[C@@H](C)Cn3cncn3)cc(-c3cncnc3)nc2c1C,-7%,1.16
Cc1n[nH]c(C)c1[C@H](C)N(C)C(=O)c1cn(C2CCCCCC2)nn1,9%,-1.29
Cc1noc(COC2CCN(C(=O)c3cccc(F)c3)CC2)n1,-5%,0.66
c1cnc(N2CCCC2)c(-c2ccc3[nH]ccc3c2)n1,1%,-0.21
Cc1oncc1C(=O)N1CCC[C@H](Oc2ccncn2)C1,9%,-1.2
CCOc1ccc(-c2c[nH]c(-c3cccc(OCC(N)=O)c3)n2)cc1,-3%,0.32
CN(C)CCC1CCN(S(=O)(=O)CCC(C)(C)C)CC1,-5%,0.65
O=C(Nc1ccc(N2CCCS2(=O)=O)cc1)c1ccc2c(c1)OCO2,-20%,2.58
COc1ccc(NC(=O)OCC(F)(F)F)c(OC)c1,-1%,0.12
O=C(CN1CCCCC1)NC1CCN(Cc2ccccc2)CC1,2%,-0.36
NC(=O)Cc1ccc(NS(=O)(=O)N2CCc3ccccc3C2)cc1,-9%,0.83
Cc1ccc(N2CCCC2=O)cc1NC(=O)N1CCC(c2n[nH]cc2C)CC1,-8%,1.78
CC1CC(C(=O)N2CCN(C(=O)Cc3c[nH]c4ccccc34)CC2)C1 (centres undefined),-3%,0.48
Cc1[nH]cnc1CNC(=O)[C@H](C)N1CCCCC1,-10%,1.8
CC[C@@H](C(=O)N1CC(c2nc(-c3cnccn3)no2)C1)c1ccccc1,0%,0.04
O=C(NC1CC1)c1csc(COc2ccc3c(c2)[C@H](c2ccc(F)cc2)N(C(=O)c2ccco2)CC3)n1,19%,-2.94
O=C1CC[C@]2(C(=O)NCCc3c[nH]c4ccccc34)CCC=C2N1C1CCCC1,-16%,1.55

SMILES,% Inhibition,Z score
Cc1nc(N2CCC(OCc3cccnc3)CC2)c2ccsc2n1,9%,-1.25
N#Cc1ccc(S(=O)(=O)c2c(C(=O)N3CCCCC3)cnc3ccc(F)cc23)cc1,-13%,1.24
Cn1cc(C(=O)C[C@H]2CCCN2S(=O)(=O)c2ccc3c(c2)C(C)(C)C(=O)N3)cn1,3%,-0.45
O=C(NCc1ccco1)NC1CCCCCC1,-5%,0.55
CCCN(CCC)C(=O)[C@@H]1COC2(CCC(C)CC2)N1C(=O)c1ccc(F)cc1 (some centres undefined),-5%,1.01
Cn1cnc(CCNC(=O)[C@@](C)(O)C2CC2)c1,-11%,2.15
Cc1cccc(-n2nc(C)c3sc(N(C)CC(=O)N[C@@H](C)c4ccc(C)c(C)c4)nc32)c1,-4%,0.6
CCCN1C[C@@H](NCc2cnc(N3CCCC3)s2)CC1=O,-3%,0.4
CC1CCN([C@@H](C)C(=O)NC(C)(C)C)CC1,-11%,1.16
O=S(=O)(Nc1ccc2nncn2c1)c1ccc(F)cc1F,-1%,0.1
CC(C)[C@@H](C(=O)NC[C@H]1CC[C@H](C(=O)O)CC1)n1cnc2ccccc2c1=O,-9%,1.28
COc1cc(OC)c(NC(=O)Cc2c(C(=O)O)c(C)cn2C)cc1Cl,2%,-0.29
Cc1nc(C(=O)Nc2nccs2)c(-c2ccccc2)s1,-6%,1.12
Cc1nnc(N(C)Cc2ccc(Cl)s2)c(C#N)c1C,-16%,1.44
CC(=O)N1CC[C@@]2(O)CCN(Cc3nc(C)cc(-c4ccccc4)n3)C[C@H]2C1,-6%,1.33
O=C(c1cc(Cl)c(Cl)[nH]1)N1CCC2(CC1)CNCCO2,19%,-2.36
CCCc1cc(N2CCC3(CCC(=O)N(Cc4cccnc4)C3)CC2)nc(C)n1,-5%,0.77
Cc1cnc(C2CN(Cc3ccccc3)C2)n1CC1CC1,-8%,1.07
C[C@@H](CNC(=O)Nc1ccccc1N1CCOCC1)c1nccs1,-5%,0.54
Cc1ccc(N2CCN(S(=O)(=O)c3ccc(Cl)cc3)[C@@H](C)C2=O)cc1F,-5%,0.73
C=C(C)[C@H](NC(=O)c1cn[nH]c1C)c1ccc(F)c(F)c1,2%,-0.34
